In all, about 310,000 compounds went through this assay and about 2,200 (0.71%) showed an effect of 50% or more. The effect is printed as a negative number. This is one part of the list.
These compounds were tested against human ether-à-go-go-related gene (hERG) potassium channel (human, UniProt Q12809) (assay: primary screen, population patch clamp on CHO cells stably expressing hERG).
Sequence of human ether-à-go-go-related gene (hERG) potassium channel (Q12809 whole entry, looked up): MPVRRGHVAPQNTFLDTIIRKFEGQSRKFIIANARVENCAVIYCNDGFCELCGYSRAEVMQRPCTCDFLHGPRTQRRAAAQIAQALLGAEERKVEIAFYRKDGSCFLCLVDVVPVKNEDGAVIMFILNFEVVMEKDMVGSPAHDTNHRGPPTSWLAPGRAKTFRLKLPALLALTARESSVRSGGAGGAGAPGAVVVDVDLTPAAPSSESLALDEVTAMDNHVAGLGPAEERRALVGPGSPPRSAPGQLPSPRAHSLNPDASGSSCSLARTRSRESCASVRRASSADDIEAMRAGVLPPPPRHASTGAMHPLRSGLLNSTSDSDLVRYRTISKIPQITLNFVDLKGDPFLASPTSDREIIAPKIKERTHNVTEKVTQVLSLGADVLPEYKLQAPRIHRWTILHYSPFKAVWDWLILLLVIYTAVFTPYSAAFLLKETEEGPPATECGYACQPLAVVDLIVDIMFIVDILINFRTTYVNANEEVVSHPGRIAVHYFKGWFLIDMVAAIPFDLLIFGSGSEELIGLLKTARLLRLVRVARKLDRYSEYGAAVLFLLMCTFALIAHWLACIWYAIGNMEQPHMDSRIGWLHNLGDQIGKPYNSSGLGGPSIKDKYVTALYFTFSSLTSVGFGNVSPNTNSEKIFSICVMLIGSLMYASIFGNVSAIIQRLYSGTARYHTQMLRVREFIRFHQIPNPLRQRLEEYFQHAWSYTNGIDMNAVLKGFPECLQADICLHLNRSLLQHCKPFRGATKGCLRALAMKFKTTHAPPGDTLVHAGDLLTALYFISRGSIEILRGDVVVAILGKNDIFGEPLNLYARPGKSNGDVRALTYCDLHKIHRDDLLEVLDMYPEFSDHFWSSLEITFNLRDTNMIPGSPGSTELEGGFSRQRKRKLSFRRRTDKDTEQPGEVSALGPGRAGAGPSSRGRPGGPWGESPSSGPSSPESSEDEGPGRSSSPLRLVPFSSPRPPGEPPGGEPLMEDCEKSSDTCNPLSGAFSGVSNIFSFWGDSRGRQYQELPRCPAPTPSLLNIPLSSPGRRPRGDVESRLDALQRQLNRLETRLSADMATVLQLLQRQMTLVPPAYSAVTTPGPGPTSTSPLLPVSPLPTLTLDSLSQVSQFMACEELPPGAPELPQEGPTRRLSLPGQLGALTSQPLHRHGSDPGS

Row | SMILES | hERG current change (%, negative = inhibition) at 1uM
1 | CCCOc1ccc(/C=N/n2nnnc2N)cc1OC | 10.6%
2 | COc1ccccc1NC(=O)c1ccc[n+]([O-])c1 | 15.7%
3 | COCCCNC(=S)NC(=O)c1ccc(C)cc1 | 12%
4 | Cc1ccc(-c2csc3ncnc(N4CCN(C)CC4)c23)cc1C | 10.8%
5 | CC(O)CO (stereo not drawn) | 15.7%
6 | Cc1ccc(C)c(Oc2cc(NC(=O)CCCn3nc(C)c([N+](=O)[O-])c3C)cc([N+](=O)[O-])c2)c1 | 9.35%
7 | CCOC(=O)c1c(C)cc(C)[nH]c1=O | 18.3%
8 | COC(=O)C1=C(c2ccccc2OCc2ccccc2)C[C@@H]2CC[C@H]1N2C(=O)NCc1ccc(C(F)(F)F)cc1 | 12.8%
9 | COCCCN1CCN(c2nnc3n2-c2sc(Br)cc2C(c2ccccc2Cl)=NC3)CC1.CS(=O)(=O)O | -11.9%
10 | COC(=O)Nc1ccc(S(=O)(=O)Nc2cnc3ccccc3n2)cc1 | 18.1%
11 | COc1cc(OC)c2c(-c3ccccc3)cc(=O)oc2c1C(CCN1CCCCC1)c1ccc(N(C)C)cc1 (stereo not drawn) | 2.68%
12 | CCCn1nc(C(=O)OCC(=O)NC(C)c2ccccc2)c2ccccc2c1=O (stereo not drawn) | 16.3%
13 | COc1ccc(O)c(C(c2c(C)[nH][nH]c2=O)c2c(C)[nH][nH]c2=O)c1 | 4.85%
14 | Cc1[nH+]csc1CCOC(=O)c1cccc([N+](=O)[O-])c1.[Cl-] | 4.22%
15 | CCN(Cc1nc2cc(Cl)ccc2c(=O)[nH]1)C(=O)c1nn(C)c(=O)c2ccccc12 | 3.93%
16 | Cc1nc(NC(=O)c2ccccc2)sc1C1(C)CC(c2ccc(OC(F)(F)F)cc2)=NO1 (stereo not drawn) | 13.5%
17 | COc1cc(N=c2ssnc2Cl)cc(OC)c1OC | 7.47%
18 | CCOC(=O)Cn1nc(C)c(NC(=O)c2ccc(Br)o2)c1C | 10.2%
19 | CC(=O)Nc1cc2c(cc1NC(=O)Cn1nc(-c3ccc4c(c3)OCCO4)ccc1=O)OCCO2 | 6.94%
20 | CC1(C)O[C@@H]2C[C@H]3[C@@H]4C[C@H](F)C5=CC(=O)C=C[C@]5(C)[C@@]4(F)[C@@H](O)C[C@]3(C)[C@]2(C(=O)CO)O1 | 17.2%
21 | O=C(NCCCn1ccnc1)/C(=C\c1ccccc1F)NC(=O)c1ccccc1 | -42.5%
22 | Cc1ccc(NC(=O)NC(=O)CSc2nnc(-c3ccc(OC(F)F)cc3)n2N)c(C)c1 | 12.7%
23 | COCCN(C(=O)c1csnn1)C(C(=O)NC1CCCCC1)c1ccc(Cl)cc1 (stereo not drawn) | 10%

Row | SMILES | hERG current change (%, negative = inhibition) at 1uM
24 | O=C(COC(=O)c1cc(Cl)ccc1O)NCC1CCCO1 (stereo not drawn) | 13.1%
25 | O=C(NC1CCCCC1)c1cc(-c2ccc(Cl)cc2)on1 | -4.47%
26 | COc1ccc(S(=O)(=O)Nc2ccccc2C(=O)NC(C)(C)C)cc1OC | -0.334%
27 | Cc1ccc2c(c1)/C(=C/c1ccccc1C)C(=O)N2 | 16.9%
28 | CCN1CCN(CC(=O)N2CCCC(C(=O)c3ccc(Oc4ccccc4)cc3)C2)CC1 (stereo not drawn) | -0.91%
29 | Cc1nn(-c2ccccc2)c(Cl)c1/C=N/NC(=O)CNc1n[nH]c(=O)[nH]c1=O | 6.87%
30 | CC(C)Cn1c(N)c(C(=O)COC(=O)C2=COCCO2)c(=O)n(C)c1=O | 11%
31 | Cc1ccc(C(=O)OCC(=O)Nc2ccc(F)c(Cl)c2)o1 | 14.9%
32 | O=C(NC(c1ccccc1)c1ccccc1)C1CCCO1 (stereo not drawn) | 9.21%
33 | O=C(CCCN1C(=O)/C(=C\c2cccs2)SC1=S)Nc1ccc(O)cc1C(=O)O | 10.9%
34 | Cc1ccsc1C(=O)Nc1ccc(OCc2ccccc2)cc1 | 15.7%
35 | COc1cccc(C(=O)NC2CCN(CC(=O)NCc3ccccc3OC)CC2)c1 | 7.23%
36 | COC(=O)Nc1ccc(=O)n(Cc2c(Cl)cccc2Cl)c1 | 12.2%
37 | O=C(NNS(=O)(=O)c1ccc2ccccc2c1)c1cccs1 | 9.55%
38 | O=C(NN=C1CCCCC1)c1ccccc1OCc1ccc(F)cc1 | 9.08%
39 | COc1ccc2cc(C#N)c(SCC(=O)N3CCCC3)nc2c1 | 0.146%
40 | CCC(C)NC(=O)c1cc(OC)c(OC)c(OC)c1 (stereo not drawn) | 8.7%
41 | O=[N+]([O-])c1ccc(O)c(P(=O)(c2ccccc2)c2ccccc2)c1 | 12.7%
42 | CCC(=O)c1ccc(OCCn2cncn2)cc1 | -2.25%
43 | CSc1ccc(CCNC(=O)CN2C(=O)CCSc3ccccc32)cc1 | 1.74%
44 | Cc1ccc(C(=O)N2CCC(C)CC2)cc1S(=O)(=O)N1CCCCC1 | 10.4%
45 | Nc1c(C(=O)Nc2ccc(Cl)cc2)sc2nc(N3CCOCC3)c3c(c12)CCCC3 | 13.6%

Reference: article PMC4336329 (PLoS ONE, 2015)
